Consider 53 compounds from ChEMBL document CHEMBL4888484, “Replenishing the malaria drug discovery pipeline: Screening and hit evaluation of the MMV Hit Generation Library 1 (HGL1) against asexual blood stage Plasmodium falciparum ,using a nano luciferase reporter read-out” (2022).

The structures appear in SMILES notation. The campaign covered roughly 150,000 compounds. About 540 (0.36%) showed an effect of 50% or more. Some of the results follow.

This assay relates to Plasmodium falciparum. In words: Primary screen in NF54 nanoGlo assay, in single point, at 2uM, 72h; a lower Z score goes with more inhibition. Format: functional, Erythrocyte. Conditions: timepoint 72 hour.
In general, % Inhibition refers to the drop in the measured response relative to a control, in per cent. On to `O=C(c1ccoc1)N1CC(Nc2ccncn2)C1`, for which the “% Inhibition” value was 1% and the Z score is -0.11.

As for `CCCc1nnc2sc(CCOc3ccccc3)nn12`, the “% Inhibition” value is -2% and the Z score was 0.31.

On to `CCn1ncc(C#N)c1NS(=O)(=O)c1cccs1`, for which the “% Inhibition” value was -6% and the Z score worked out at 0.69.

In the case of `Cc1cncc(CCNC(=O)Nc2nc(C)c(Cc3ccc(F)cc3)s2)n1`, the “% Inhibition” value is listed as -7% and the Z score came to 1.09.

In the case of `COc1ccc(OC)c(S(=O)(=O)Nc2ccc3c(c2)OC2(CCCC2)O3)c1`, the “% Inhibition” value was -6% and the Z score is on record as 0.66.

For the compound `C[C@H](NC(=O)c1cccc(-c2ncccc2N)c1)c1nc(C2CC2)no1`, the “% Inhibition” value is given as -18% and the Z score was determined as 3.13.

In the case of `CCc1onc(C)c1CS(=O)(=O)c1ccc2c(c1)CCC2`, the “% Inhibition” value was -5% and the Z score stood at 0.84.

`O=C1OC2CC1N(C(=O)Nc1c(F)cccc1F)C2` (stereo unspecified): the “% Inhibition” value is recorded as -13% and the Z score stood at 2.43.

`Cc1cncc(C=Cc2cccc(Cl)c2Cl)n1`: the “% Inhibition” value turned out to be 7% and the Z score is reported as -1.14.

Regarding `Nc1nc(CCC(=O)N2CC(c3cccnc3)C2)cs1`, the “% Inhibition” value is listed as -1% and the Z score is 0.23.

For the compound `O=C(c1n[nH]c2c1CCCC2)N1CCC([C@@H](O)CCc2ccccc2)CC1`, the “% Inhibition” value was determined as 4% and the Z score is -0.49.

Turning to `Cc1ccc(S(=O)(=O)Nc2ccc(Br)cc2C(=O)Nc2ccc(Oc3ccc(Br)c4ccccc34)c(Cl)c2)cc1`, the “% Inhibition” value is 36% and the Z score is -4.59.

Consider `Cc1sc(-c2noc(C3CCC3)n2)cc1NC(=O)c1ccc2c(c1)OCO2`, for which the “% Inhibition” value is on record as 0% and the Z score was 0.05.

As for `CC[C@]1(O)CCN(C(=O)c2cnc(N3CCCCC3)nc2C)C[C@@H]1O`, the “% Inhibition” value is on record as 4% and the Z score is reported as -0.58.

Consider `Cc1ccc(CNC(=O)c2ccc(NS(=O)(=O)c3ccc(-c4ccc(F)cc4)cc3)cc2)o1`, for which the “% Inhibition” value is 1% and the Z score was -0.17.

Consider `Cc1ccc(NC(=O)N2CC[C@H](N(CCN3CCCC3)S(=O)(=O)N(C)C)C2)c(C)c1`, for which the “% Inhibition” value was -11% and the Z score came to 1.37.

`Cc1ccc([C@H]2C(=O)N(C3CCC(C)CC3)CC(=O)N2C2CCCCCCC2)cc1` (stereo partly specified): the “% Inhibition” value is given as -6% and the Z score stood at 0.82.

On to `CC(C)(CNC(=O)[C@@H]1CCCN1C(=O)c1cccs1)N1CCOCC1`, for which the “% Inhibition” value is reported as -2% and the Z score came to 0.17.

As to `C[C@]1(O)CCN(c2cnccn2)C[C@H]1Cc1ccccc1`, the “% Inhibition” value is -9% and the Z score was found to be 1.16.

On to `Cc1cc(=O)n(CC(=O)Nc2ccc3c(c2)CCC3)c(N2CCc3ccccc3C2)n1`, for which the “% Inhibition” value was -6% and the Z score is recorded as 0.89.

Take `C[C@@H](CNS(=O)(=O)c1ccco1)N(C)S(=O)(=O)c1ccco1`: the “% Inhibition” value is on record as 31% and the Z score is given as -0.45.

Turning to `Cc1n[nH]c([C@@H]2CN(C(=O)CCc3nc4ccccc4s3)C[C@H]2C(N)=O)n1`, the “% Inhibition” value was -8% and the Z score is 1.29.

For the compound `Cc1cnc([C@H](C)NC(=O)c2cc3n(n2)CCC3)s1`, the “% Inhibition” value is 34% and the Z score is given as -3.85.

For the compound `CC(C)c1ncsc1C(=O)Nc1ccsn1`, the “% Inhibition” value is -25% and the Z score turned out to be 2.75.

Consider `Cc1ccc2c(c1)cc(CN1CC[C@H](CNC(=O)CC3CC3)C1)n2C`, for which the “% Inhibition” value is reported as -9% and the Z score came out at 1.59.

For the compound `N#Cc1c(NC(=O)c2cccc3ccccc23)sc2c1CCC2`, the “% Inhibition” value is given as -4% and the Z score is recorded as 0.61.

As to `Cc1cc(C)n(CC(=O)N2CCOc3ccc(C(=O)N4CCCC4)cc3C2)n1`, the “% Inhibition” value is recorded as -30% and the Z score is 2.94.

On to `CC1OCCC1C(=O)Nc1ccc(-n2cc(C#N)c(N)n2)cc1` (stereo unspecified), for which the “% Inhibition” value was -2% and the Z score was 0.27.

Consider `COc1ccc2[nH]c3c(c2c1)CCN(C(=O)c1ccc(C)c(C)c1)[C@H]3COCc1ccccc1`, for which the “% Inhibition” value came to 0% and the Z score is recorded as 0.02.

Turning to `CC1CCN(c2nc(N3CCN(C)CC3)nc3c2CN(C(=O)c2ccccc2Cl)CC3)CC1`, the “% Inhibition” value was -2% and the Z score came out at 0.24.

For `C[C@H]1CS(=O)(=O)C[C@H]1NC1CC2(CCCCC2)C1`, the “% Inhibition” value is 28% and the Z score was -3.14.

On to `Cc1nc(-c2csc(S(=O)(=O)N3CCC[C@H](C(=O)NC4CCCCCCC4)C3)c2)no1`, for which the “% Inhibition” value is listed as -4% and the Z score is 0.46.

Take `O=C(Nc1ccc(N2CCCCC2)cc1)c1cccnc1O`: the “% Inhibition” value was -4% and the Z score is recorded as 0.76.

For `O=C(Nc1ccc(C(F)(F)F)cc1)N1CCN2C(=O)NC[C@H]2C1`, the “% Inhibition” value is reported as -10% and the Z score was 1.92.

In the case of `Cn1ccnc(N2CCCN(c3cccc(F)c3F)CC2)c1=O`, the “% Inhibition” value is reported as 2% and the Z score was -0.23.

On to `Fc1ccc2c(c1)CCC[C@@H]2NCCc1nnc2ccccn12`, for which the “% Inhibition” value is -11% and the Z score was 1.38.

For `Cc1cc(C)c(C(=O)N[C@@H](CC2CC2)C(=O)O)s1`, the “% Inhibition” value is recorded as -9% and the Z score was 1.68.

Consider `Cc1cc(C)n(-c2ccc(C(=O)N3CCN(c4nonc4C)CC3)cc2)n1`, for which the “% Inhibition” value is on record as -17% and the Z score came to 1.84.

`CC(C)N1CCN(C(=O)c2cc3c(=O)[nH]c(-c4ccccc4)cn3n2)CC1`: the “% Inhibition” value is given as -13% and the Z score came to 2.15.

Consider `Cc1nc(N2CCCC2)nc(C)c1NC(=O)c1cccs1`, for which the “% Inhibition” value is listed as -8% and the Z score stood at 1.32.

For `O=c1c2cc(-c3ccc(F)cc3)nn2ccn1C[C@H](O)c1ccccc1Cl`, the “% Inhibition” value was -5% and the Z score was determined as 0.59.

On to `CCn1nc(NC(=O)Nc2nnc(Cc3cccc(OC)c3)s2)cc1C1CC1`, for which the “% Inhibition” value was 3% and the Z score was -0.3.

For `Cc1nn(CN(CCC#N)C[C@H]2CCOC2)c(C)c1Br`, the “% Inhibition” value is -5% and the Z score turned out to be 0.98.

As for `CCc1nc2n(n1)CC(NC(=O)NCC(C)(O)C1CCCCC1)CC2` (stereo unspecified), the “% Inhibition” value is given as -13% and the Z score is reported as 1.87.

On to `CC[C@H]1CCc2c(nc3ccccc3c2O)O1`, for which the “% Inhibition” value is given as 2% and the Z score was -0.28.

For the compound `Cc1cc(C)nc(N2CCCN(c3cccc(F)c3F)CC2)n1`, the “% Inhibition” value was -19% and the Z score turned out to be 2.34.

Regarding `COc1cc([C@H]2CC(O)=Nc3c2c(-c2ccccc2)nn3-c2ccccc2)ccc1O`, the “% Inhibition” value was determined as 37% and the Z score is -1.

As for `O=C(c1cccc(Cn2ccnc2)c1)N1CCOC2CCCCC21` (stereo unspecified), the “% Inhibition” value is on record as -10% and the Z score is 1.38.

Take `O=C(c1cc2c(cn1)OCCC2)N1CCN(c2ncccn2)CC1`: the “% Inhibition” value is recorded as -13% and the Z score is recorded as 2.57.

With `OC(CC1CCCN1CCc1ccncc1)c1cccs1` (stereo unspecified), the “% Inhibition” value is recorded as 4% and the Z score is recorded as -0.36.

Turning to `C=C(C)COc1ccc(NC(=O)[C@@H](N)C2CCCCC2)cc1`, the “% Inhibition” value stood at 3% and the Z score is given as -0.61.

Take `COc1ccccc1-c1csc2c1NC(=O)C[C@@H]2c1ccc2c(c1)OCO2`: the “% Inhibition” value was 2% and the Z score is given as -0.25.

`CN(C)c1nccc(CNC(=O)c2ccc3c(c2)OCO3)n1`: the “% Inhibition” value is -2% and the Z score is 0.46.
